For one test, the system named is HSkMC. As to the kind of experiment: cytotoxicity call (relative viability < 0.9). Conditions: 10 µM.
Another test relates to HepG2. The test is described as follows: cytotoxicity call (relative viability < 0.9). Conditions: 10 µM.
The subject of the next test is S. aureus RN4220. The test is described as follows: growth inhibition call (relative growth <= 0.2). Conditions: 50 µM.

The other results are listed elsewhere or left out.

In the case of `O=C(C[C@@H]1CC[C@@H]2[C@H](COC[C@H](O)CN2S(=O)(=O)c2ccc(Oc3ccccc3)cc2)O1)NC1CCC1`, the cytotoxicity call with HSkMC and in the test on HepG2 was “inactive” each time. Besides, the growth inhibition call with S. aureus RN4220 was “inactive”.
As to `C[C@@H]1CCCCO[C@@H](CN(C)C(=O)Nc2ccc(F)cc2)[C@H](C)CN([C@@H](C)CO)C(=O)c2cc(NC(=O)C3CCCCC3)ccc2O1`, the cytotoxicity call in the test on HSkMC and in the test with HepG2 was “inactive” throughout. Also, in the test on S. aureus RN4220, the growth inhibition call is “inactive”.
Consider `COc1cccc(S(=O)(=O)N[C@@H]2C=C[C@H](CC(=O)NC3CCC3)O[C@@H]2CO)c1`, for which the cytotoxicity call with HSkMC and in the test with HepG2 was “inactive” each time. The growth inhibition call in the test on S. aureus RN4220 is “inactive”.
For the compound `C[C@H]1CN([C@@H](C)CO)C(=O)c2cc(NC(=O)Cn3cnnn3)ccc2O[C@@H]1CN(C)C(=O)NC1CCCCC1`, the cytotoxicity call with HSkMC and in the test with HepG2 was “inactive” in each case. Moreover, the growth inhibition call in the test with S. aureus RN4220 is “inactive”.
As to `C[C@@H]1CCCCO[C@H](CN(C)Cc2ccc(Cl)c(Cl)c2)[C@@H](C)CN([C@@H](C)CO)C(=O)c2cc(NS(=O)(=O)c3ccc(F)cc3)ccc2O1`, in the test with HSkMC, the cytotoxicity call is “active”. In addition, the cytotoxicity call in the test on HepG2 was “inactive”. Also, the growth inhibition call in the test on S. aureus RN4220 was “inactive”.
Consider `O=C(C[C@@H]1CC[C@H]2[C@@H](COC[C@H](O)CN2S(=O)(=O)c2ccc(F)cc2)O1)NCCN1CCCCC1`, for which the cytotoxicity call with HSkMC and with HepG2 was “inactive” each time. Further, the growth inhibition call with S. aureus RN4220 was “inactive”.
For the compound `C[C@H]1CN([C@@H](C)CO)C(=O)c2cccc(NC(=O)Nc3ccc(F)cc3)c2O[C@H]1CN(C)S(=O)(=O)c1cn(C)cn1`, the cytotoxicity call with HSkMC and in the test on HepG2 was “inactive” in each case. In addition, in the test with S. aureus RN4220, the growth inhibition call was “inactive”.
Regarding `COc1ccc(NC(=O)N(C)C[C@H]2Oc3ccc(NC(=O)Nc4ccc(C(F)(F)F)cc4)cc3CC(=O)N([C@H](C)CO)C[C@H]2C)cc1`, the cytotoxicity call in the test with HSkMC and in the test with HepG2 was “inactive” throughout. In addition, the growth inhibition call in the test with S. aureus RN4220 was “inactive”.
As for `C[C@@H]1CN([C@H](C)CO)C(=O)c2cc(NC(=O)Nc3ccccc3)ccc2O[C@@H](C)CCCCO[C@@H]1CN(C)S(=O)(=O)c1cccs1`, the cytotoxicity call with HSkMC and with HepG2 was “inactive” each time. The growth inhibition call in the test with S. aureus RN4220 is “inactive”.
As to `COc1ccc(-c2cnc3c(c2)C(=O)N([C@@H](C)CO)C[C@@H](C)[C@@H](CN(C)S(=O)(=O)c2ccc(OC)cc2)O3)cc1`, the cytotoxicity call with HSkMC and in the test on HepG2 was “inactive” each time. In the test with S. aureus RN4220, the growth inhibition call was “inactive”.
On to `C[C@H](CO)N1C[C@H](C)[C@@H](CN(C)C(=O)Cc2cccnc2)Oc2cc(-c3cncnc3)ccc2S1(=O)=O`, for which the cytotoxicity call in the test on HSkMC and in the test on HepG2 was “inactive” each time. Also, in the test with S. aureus RN4220, the growth inhibition call is “inactive”.
As to `CC(=O)O.Cc1c(-c2ccc(O)cc2)n(Cc2ccc(OCCN3CCCCCC3)cc2)c2ccc(O)cc12`, in the test with HSkMC, the cytotoxicity call was “inactive”. Besides, the cytotoxicity call with HepG2 is “active”. The growth inhibition call in the test on S. aureus RN4220 is “inactive”.
On to `COc1ccc(NC(=O)N(C)C[C@@H]2Oc3ncc(C#CCN(C)C)cc3C(=O)N([C@@H](C)CO)C[C@H]2C)cc1`, for which the cytotoxicity call in the test on HSkMC and with HepG2 was “inactive” each time. For the same compound, the growth inhibition call with S. aureus RN4220 is “inactive”.
Consider `CON=C(C(=O)NC1C(=O)N2C(C(=O)[O-])=C(COC(N)=O)CSC12)c1ccco1.[Na+]` (stereo unspecified), for which the cytotoxicity call with HSkMC and in the test with HepG2 was “inactive” each time. The growth inhibition call in the test on S. aureus RN4220 was “active”.
Turning to `C[C@H](CO)N1C[C@H](C)[C@@H](CN(C)Cc2ccc(Oc3ccccc3)cc2)Oc2ccc(NC(=O)Cc3ccccc3)cc2CC1=O`, the cytotoxicity call in the test with HSkMC and in the test on HepG2 was “inactive” in each case. Besides, in the test with S. aureus RN4220, the growth inhibition call is “inactive”.
Take `C[C@@H]1CCCCO[C@@H](CN(C)S(=O)(=O)c2cccs2)[C@H](C)CN([C@H](C)CO)C(=O)c2cc(NS(=O)(=O)c3ccc(Cl)cc3)ccc2O1`: the cytotoxicity call in the test with HSkMC is “inactive”. For the same compound, the cytotoxicity call with HepG2 is “active”. For the same compound, the growth inhibition call with S. aureus RN4220 is “inactive”.
For `C[C@H](CO)N1C[C@H](C)[C@@H](CN(C)S(=O)(=O)c2ccccc2)OCCCC[C@H](C)Oc2ccc(NS(C)(=O)=O)cc2C1=O`, the cytotoxicity call in the test with HSkMC and with HepG2 was “inactive” throughout. Also, the growth inhibition call with S. aureus RN4220 was “inactive”.
Regarding `COCCOC(=O)N1C(=O)[C@@]2(c3cc(C#CCNC(N)=O)ccc31)[C@H](C(N)=O)[C@H]1C(=O)O[C@H](c3ccccc3)[C@H](c3ccccc3)N1[C@@H]2c1ccccc1OCCO`, the cytotoxicity call in the test with HSkMC and with HepG2 was “inactive” in each case. Moreover, in the test with S. aureus RN4220, the growth inhibition call is “inactive”.
With `COc1cccc(NC(=O)N[C@@H]2CC[C@H](CC(=O)N3CCOCC3)O[C@@H]2CO)c1`, the cytotoxicity call with HSkMC and in the test on HepG2 was “inactive” each time. The growth inhibition call with S. aureus RN4220 was “inactive”.
Regarding `CCCN1CCCc2cc(CCN)ccc21`, the cytotoxicity call in the test with HSkMC and in the test with HepG2 was “inactive” in each case. Further, the growth inhibition call with S. aureus RN4220 is “inactive”.
Take `O=C(C[C@H]1CC[C@@H]2[C@H](COC[C@@H](O)CN2S(=O)(=O)c2ccccc2)O1)N1CCOCC1`: the cytotoxicity call in the test with HSkMC and in the test with HepG2 was “inactive” in each case. In addition, the growth inhibition call in the test with S. aureus RN4220 is “inactive”.
With `Cc1ccc(-c2ccc3c(c2)O[C@H](CN(C)C(=O)Nc2ccc(C(F)(F)F)cc2)[C@@H](C)CN([C@H](C)CO)S3(=O)=O)cc1`, the cytotoxicity call in the test on HSkMC and with HepG2 was “inactive” each time. Also, the growth inhibition call in the test with S. aureus RN4220 is “inactive”.
As to `COc1cccc(-c2ccc3c(c2)O[C@H](CN(C)Cc2cncnc2)[C@@H](C)CN([C@H](C)CO)S3(=O)=O)c1`, the cytotoxicity call in the test on HSkMC and with HepG2 was “inactive” throughout. Moreover, the growth inhibition call in the test with S. aureus RN4220 is “inactive”.
Take `CN1CCN(CC#N)C(=O)C12CCN([C@H]1CCOC1)CC2`: the cytotoxicity call in the test with HSkMC and in the test with HepG2 was “inactive” each time. Besides, the growth inhibition call in the test on S. aureus RN4220 was “inactive”.
As for `COc1ccc(CNC(=O)C[C@@H]2CC[C@@H]3[C@@H](COc4ccc(NC(=O)C(C)C)cc4C(=O)N3C)O2)cc1`, the cytotoxicity call in the test with HSkMC and in the test with HepG2 was “inactive” in each case. Further, in the test on S. aureus RN4220, the growth inhibition call was “inactive”.
For `C[C@@H]1CCCCO[C@H](CN(C)Cc2ccc(Cl)c(Cl)c2)[C@H](C)CN([C@@H](C)CO)C(=O)c2cc(NC(=O)Nc3ccc4c(c3)OCO4)ccc2O1`, the cytotoxicity call in the test on HSkMC (human skeletal muscle cells) and in the test on HepG2 was “active” in each case. Moreover, in the test with S. aureus RN4220, the growth inhibition call was “inactive”.
In the case of `C[C@H](CO)N1C[C@H](C)[C@H](CN(C)Cc2ccc(Cl)c(Cl)c2)Oc2ccc(NC(=O)Cn3cnnn3)cc2CC1=O`, the cytotoxicity call with HSkMC and with HepG2 was “inactive” each time. Moreover, the growth inhibition call in the test on S. aureus RN4220 is “inactive”.

For the origin of these results see the antibiotic and cytotoxicity screens of Wong et al. (2023).
